The text below walks through data of the supplement of paper PMC8728848.

The list shows a part of the results.

Common to all, as to experiment: glycan array binding signal (z-score within array); higher = stronger binding
Common to all, as to details: glycan notation: IUPAC condensed, linker removed

Assay [1] deals with Gal(b1-4)GlcNAc(b1-2)Man(a1-6)[Man(a1-3)]Man(b1-4)GlcNAc(b1-4)GlcNAc. The method in brief: (§1)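 The binding signal is a Z-score computed within each array and averaged over linkers. Arrays of the same protein sequence at different concentrations or buffers were also averaged together. Data originate from 3228 arrays in the Consortium for Functional Glycomics database, kept only where the protein sequence was available.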

The target in assay [2] is Gal(b1-4)GlcNAc(b1-2)[Gal(b1-4)GlcNAc(b1-4)]Man(a1-3)[Gal(b1-4)GlcNAc(b1-2)Man(a1-6)]Man(b1-4)GlcNAc(b1-4)GlcNAc. The method in brief:
as §1

Assay [3] has as its target Gal(b1-4)GlcNAc(b1-2)[Gal(b1-4)GlcNAc(b1-4)]Man(a1-3)[Gal(b1-4)GlcNAc(b1-2)[Gal(b1-4)GlcNAc(b1-6)]Man(a1-6)]Man(b1-4)GlcNAc(b1-4)GlcNAc. The method in brief:
as §1

Assay [4] has as its target Gal(b1-4)GlcNAc(b1-2)[Gal(b1-4)GlcNAc(b1-4)]Man(a1-3)[GlcNAc(b1-4)][Gal(b1-4)GlcNAc(b1-2)Man(a1-6)]Man(b1-4)GlcNAc(b1-4)GlcNAc. The method in brief:
as §1

The target in assay [5] is Gal(b1-4)GlcNAc(b1-2)[Gal(b1-4)GlcNAc(b1-4)]Man(a1-3)[GlcNAc(b1-4)][Gal(b1-4)GlcNAc(b1-2)[Gal(b1-4)GlcNAc(b1-6)]Man(a1-6)]Man(b1-4)GlcNAc(b1-4)GlcNAc. The method in brief:
as §1

The target of assay [6] is Gal(b1-4)GlcNAc(b1-2)[Gal(b1-4)GlcNAc(b1-6)]Man(a1-6)[Gal(b1-4)GlcNAc(b1-2)Man(a1-3)]Man(b1-4)GlcNAc(b1-4)GlcNAc. The method in brief: as §1
For assay [7], the target named is Gal(b1-4)GlcNAc(b1-2)[Gal(b1-4)GlcNAc(b1-6)]Man(a1-6)[Gal(b1-4)GlcNAc(b1-2)Man(a1-3)]Man(b1-4)GlcNAc(b1-4)[Fuc(a1-6)]GlcNAc. The method in brief: as §1
In assay [8] the target is Gal(b1-4)GlcNAc(b1-2)[Gal(b1-4)GlcNAc(b1-6)]Man(a1-6)[GlcNAc(b1-4)][Gal(b1-4)GlcNAc(b1-2)Man(a1-3)]Man(b1-4)GlcNAc(b1-4)GlcNAc. The method in brief: as §1
For assay [9], the target named is Gal(b1-4)GlcNAc(b1-2)[Gal(b1-4)GlcNAc(b1-6)]Man(a1-6)[GlcNAc(b1-4)][Gal(b1-4)GlcNAc(b1-2)[Gal(b1-4)GlcNAc(b1-4)]Man(a1-3)]Man(b1-4)GlcNAc(b1-4)[Fuc(a1-6)]GlcNAc. The method in brief: as §1
Assay [10] addresses Gal(b1-4)GlcNAc(b1-3)Gal(b1-3)GalNAc. The method in brief: as §1
The target of assay [11] is Gal(b1-4)GlcNAc(b1-3)Gal(b1-3)GlcNAc. The method in brief: as §1
For assay [12], the target named is Gal(b1-4)GlcNAc(b1-3)Gal(b1-4)Glc. The method in brief: as §1
For assay [13], the target named is Gal(b1-4)GlcNAc(b1-3)Gal(b1-4)GlcNAc. The method in brief:
as §1

Assay [14] addresses Gal(b1-4)GlcNAc(b1-3)Gal(b1-4)GlcNAc(b1-2)Man(a1-3)[Gal(b1-4)GlcNAc(b1-3)Gal(b1-4)GlcNAc(b1-2)Man(a1-6)]Man(b1-4)GlcNAc(b1-4)GlcNAc. The method in brief: as §1
Assay [15] addresses Gal(b1-4)GlcNAc(b1-3)Gal(b1-4)GlcNAc(b1-2)Man(a1-3)[Gal(b1-4)GlcNAc(b1-3)Gal(b1-4)GlcNAc(b1-2)Man(a1-6)]Man(b1-4)GlcNAc(b1-4)[Fuc(a1-6)]GlcNAc. The method in brief:
as §1

The target in assay [16] is Gal(b1-4)GlcNAc(b1-3)Gal(b1-4)GlcNAc(b1-2)[Gal(b1-4)GlcNAc(b1-3)Gal(b1-4)GlcNAc(b1-6)]Man(a1-6)[Gal(b1-4)GlcNAc(b1-3)Gal(b1-4)GlcNAc(b1-2)Man(a1-3)]Man(b1-4)GlcNAc(b1-4)GlcNAc. The method in brief: as §1
In assay [17] the target is Gal(b1-4)GlcNAc(b1-3)Gal(b1-4)GlcNAc(b1-2)[Gal(b1-4)GlcNAc(b1-3)Gal(b1-4)GlcNAc(b1-6)]Man(a1-6)[Gal(b1-4)GlcNAc(b1-3)Gal(b1-4)GlcNAc(b1-2)Man(a1-3)]Man(b1-4)GlcNAc(b1-4)[Fuc(a1-6)]GlcNAc. The method in brief: as §1
Assay [18] concerns the target Gal(b1-4)GlcNAc(b1-3)Gal(b1-4)GlcNAc(b1-3)Gal(b1-4)GlcNAc. The method in brief: as §1

B1: B160 (Bifidobacterium sp) (protein)
chain: MVSHNKRIVAALAAVAAMGIGLAGCGGSDTAGDTKSGSDGGVVNITYMHRLPDSEGMTLVNDIVAKWNKEHPNIQVKATKFDGNAADMIKKLETDVKAGNAPDLAQVGYAEVPEVFTKGLLQDVTDEAAKYKDDFASGPFALMQVDGKTYGLPQDTGPLTYFYNAAEFEKLGITVPKTADELIETAKKTAAQGKYIMTFTPDEAMMMMSGQAGASGPWYKVDGNSWVVNTQTKGSKAVADVYQQLIDNKAALTNPRWDASFDNSIQSGQLIGTVAAAWEAPLFIDSAGGTGAGEWKVTQLGDWFGNGTKTGANGGSGVAVLKGSKHPAEAMEFLDWFNTQVDDLVSQGLVVAATTADAKTPQKWSDYFSGQDVMAEFKTANDNMGDFTYMPGFSAVGAAMKQTAAKAADGSAKVSDVFDTAQKTSVDTLKNLGLSVKE
Consider B1, for which the “glycan array binding signal (z-score)” value is -0.18 in [1]; -0.157 in [2]; -0.18 in assay [3]; -0.153 in assay [4]; -0.145 in assay [5]; -0.124 in assay [6]. The “glycan array binding signal (z-score)” value in [7] is -0.134; in assay [8] it was -0.182; in assay [9], -0.158; in assay [10], -0.177; in assay [11], -0.163; in assay [12], 1.79. Further, the “glycan array binding signal (z-score)” value in assay [13] was -0.167; in assay [14], -0.14; in assay [15], -0.09; in assay [16], -0.145; in assay [17], -0.109; in [18] it was 0.032.
